Data taken from the supplement of paper PMC11417369.
The list shows a part of the results.

System: PfSIP2 AP2 domain 1 (GST-tagged)
Test: gcPBM binding intensity (ln(normalized median fluorescence intensity)); higher = stronger DNA binding
Procedure, shortened: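 GST-tagged P. falciparum DNA-binding domains, expressed in E. coli (about 25 μg on average), were applied for 1 h to an Agilent 4 × 180k array of primer-extended double-stranded 36-bp intergenic genomic probes plus negative controls. The binding buffer was 1× PBS with 1% milk, 0.2 mg/ml BSA, 0.5% salmon testes DNA and 0.03% Triton X-100. Bound protein was detected with Alexa488 anti-GST antibody and scanned at 488 nm. Binding intensity is the highest Masliner-normalised natural-log median intensity across replicate spots of either probe orientation.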

Sequence | gcPBM binding intensity (ln)
AACTATAATTAAAGGATGCACTTGAAGGCATTTCAA [GTGCAC_site9689] | 7.8
TATTCATAACAATGATGTACATATATTTTTTTTTTC [XGTACX_site5619] | 7.02
CATATATAGATATATACACACATATAGATTTTCTTT [CACACA_site6797] | 6.9
TTTAATCAATGATTTAATGAAAAAAGCAAAAAAAAA [GTGCAC_negctrl_site213] | 6.9
CGTTTGGTACACGTAGTGTTTTCGTTTGAATGTACC [GTGCAC_negctrl_site201] | 7
TTTAATTTTCCCTTCACACATAATATATATCTGTAT [CACACA_site5370] | 7.08
GACATATATAGCAATCGTACATATATTATAAAAGGT [XGTACX_site6891] | 7.46
AAAAGGAACAGACACACACACATATATAAATATGTA [CACACA_site7656] | 6.87
TTTTTTTATATTATACGCACTAATATATATATATAT [XGTACX_negctrl_site40] | 8.94
TAACACTTTTTTTTTCGTACATATATTATATATATA [XGTACX_site5470] | 8.09
AAATAGACATAAAAAGGTACACAAATTGTGTATTAA [XGTACX_site527] | 6.75
TTTTTATTAGGACATGCATACAAAATTAAAAAAAAT [TGCATGCA_site258] | 7.36
ATATATATATTTAAGGTGCGATTTTGTTATATTTAA | 9.22
TTATTAAAATATTAAAGTACAAAAAAAATAAATAAA [XGTACX_site6507] | 6.76
TTATGTATATTATAAATTAATACATTTAAATTAATA [CACACA_negctrl_site34] | 6.66
AATTATATTAATATATAATAAAATAGGATGTTATTT [XGTACX_negctrl_site309] | 6.76
GTATATAATTTATGTGCACACACTCCTATTTTTAGC [CACACA_site49] | 8.89
CTTATTTTATGTTATACACACAAAGAAAAAAAATAA [CACACA_site2165] | 7.09
TATTAATTTATTTGTTGTACGTAAATATGCTTGTTT [XGTACX_site6591] | 7.26
AAAAAAAAAAAAAATTGTACCCAAATATTTTTGTAG [XGTACX_site8303] | 7.05
TGAGCATAAAAAGGGTGTACTTAAATATATTATATA [XGTACX_site7556] | 6.99
GAATATAATCTGTATTGTACGAAAGTTGAACACTTG [XGTACX_site8895] | 6.96

Sequence | gcPBM binding intensity (ln)
TTGTATTATTATGTTGCACACATTTTATATAAAATA [CACACA_site3641] | 7.79
TATATATATATATATATATATACAAATATATATTAT [CACACA_negctrl_site1729] | 9.67
TTTAGATAATTCATTACACACATGTATTTATATATA [CACACA_site5847] | 6.8
ATAAAAGATATTTTTACACACTTTTGATGAGATCGT [CACACA_site3053] | 6.83
ATACCAACATATTATACACACCTTTATATTTTTTTT [CACACA_site5217] | 7.13
GGTTGTATAAGTTTTTGTACATATATATATATATAT [XGTACX_site7487] | 8.94
TTCAAGGTTTTAGATTGTACAATTATTATATATATA [XGTACX_site8982] | 7.9
TAATAAGAAATAACAGGTACACATATATAAATATTA [XGTACX_site2976] | 6.76
ATATGTAGATGATATTATTACTTTTCAAAAATTCAA [CACACA_negctrl_site933] | 6.87
TTTTTCATTAATACAAGTACAAAATGATGTTGACAT [XGTACX_site1475] | 7.03
AAGTATAAAAAAAGGCGTACAAAAAAAAAAAAAAAA [XGTACX_site7309] | 6.95
TTTTTGTAAAAACACACACACAAACAGAAAAAATAA [CACACA_site2076] | 7.06
TGTGCCCAAAATTATGCACACACCTAAAATTAATTT [CACACA_site2914] | 7.79
ATGGTAGTTCTCCATGCATGCCTTTTTATTATCATA [TGCATGCA_site681] | 6.66
ACTATTTAGTCTGGTGGTACTTTATATATAATTTCT [XGTACX_site5618] | 7.08
ATATGTGTATGTGCGTGTACATATCTATACAGTTGT [XGTACX_site6540] | 7.32
TTTTATCTTTTTTTATTTTAATGTATTATTTTTATG [XGTACX_negctrl_site24] | 6.6
ATTATCATAATGTTCACACATATGGTATATATAGAT [CACACA_site6113] | 7.12
ATAAATAAAGGACACACACACACACTAGAAAAAAAA [CACACA_site5450] | 7.67
AAAATAAAATTAGTTGCATGCAACTTAAACAGAAAT [TGCATGCA_site860] | 7.24
TTGTGCTTGATATCACGGACAAGCTCATATTATATA [XGTACX_site4553] | 6.76
ATGAAAAAATTTATATGTACTTAAAATATAATCATA [XGTACX_site1228] | 6.95
